Data from PubChem BioAssay AID1745853 (National Center for Advancing Translational Sciences (NCATS), 2022).
The other results are listed elsewhere or left out. Further columns of the screen follow, without active or inactive calls.

How the values were obtained:
Test in all cases: Primary Screen for Target Class Profiling of Small Molecule Inhibitors of Methyltransferases
[1] = target: Glycine N-methyltransferase (Homo sapiens) (UniProt Q14749); details: purified enzyme, MTase-Glo SAH luminescence; measured here: GNMT inhibition; at 40 µM; stronger effect = lower value
How it was run: (§1)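 Each enzyme was reacted with SAM and its substrate, with compounds tested once at 40 uM; SAH formed was read by MTase-Glo luminescence.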

[2] = target: Guanidinoacetate N-methyltransferase (Homo sapiens) (UniProt Q14353); details: purified enzyme, MTase-Glo SAH luminescence; measured here: GAMT inhibition; at 40 µM; stronger effect = lower value
How it was run: as §1

[3] = target: Histamine N-methyltransferase (Homo sapiens) (UniProt P50135); details: purified enzyme, MTase-Glo SAH luminescence; measured here: HNMT inhibition; at 40 µM; stronger effect = lower value
How it was run: as §1

[4] = target: Nicotinamide N-methyltransferase (Homo sapiens) (UniProt P40261); details: purified enzyme, MTase-Glo SAH luminescence; measured here: NNMT inhibition; at 40 µM; stronger effect = lower value
How it was run: as §1

[5] = target: Phenylethanolamine N-methyltransferase (Homo sapiens) (UniProt P11086); details: purified enzyme, MTase-Glo SAH luminescence; measured here: PNMT inhibition; at 40 µM; stronger effect = lower value
How it was run: as §1
On the % scale 0 is the no-effect control and ±100 the full control effect.

| SMILES | activity change, negative = inhibition [1] [%] | activity change, negative = inhibition [2] [%] | activity change, negative = inhibition [3] [%] | activity change, negative = inhibition [4] [%] | activity change, negative = inhibition [5] [%] |
| --- | --- | --- | --- | --- | --- |
| COc1ccccc1C(=O)N1CCN(c2nccc(Nc3ccccc3Cl)n2)CC1 | -17.9 | -2.3 | -4.28 | -7.81 | -5.54 |
| Cc1ccc(N2C(=O)c3cc4sccc4n3CC2(C)C(=O)NC2CCCCC2C)cc1C (stereo not given) | 0.047 | 0 | -4.93 | -2.98 | -4.23 |
| COc1nccc(N2CCC(CC(=O)NCCCN3CCCC3=O)CC2)n1 | -0.554 | 0.043 | -1.33 | -7.82 | 13.9 |
| CCCn1c(=O)c2ccccc2n2c(=O)n(CC(=O)Nc3ccc(CC)cc3)nc12 | 1.43 | 3.63 | 6.4 | -2.71 | -1.24 |
| C[C@@]1(O)CCN(Cc2cnc(NCC(=O)O)nc2)C[C@@H]1O | -0.335 | -1.16 | 1.85 | -4.45 | 0.177 |
| Cc1ccc(S(=O)(=O)c2nnn3c2nc(NC2CCCC2)c2ccccc23)cc1 | -3.45 | 4.96 | 0.14 | -10.9 | -2.76 |
| CNC(=O)c1cc(Oc2ccc3nc(N[C@@H]4CCCC[C@H]4O)sc3c2)ccn1 | -11.5 | -13.4 | -0.743 | -27.2 | -13.4 |
| COc1ccc(OC)c(CNC(=O)c2cc3n(n2)CC(C)(C(=O)NCc2ccc(C)cc2)N(C)C3=O)c1 (stereo not given) | 0.813 | 5.29 | 4.17 | -1.7 | 2.21 |
| O=Nc1ccc2oc(=O)ccc2c1 | -53 | 4.58 | -3.22 | -3.15 | 6.21 |
| Cn1nc(C2CCN(C(=O)NCc3ccccc3)CC2)c2c1CCOC2 | -0.563 | -2.43 | 0.256 | -5.32 | -0.301 |
| CC(C)CCn1c(=O)c2ccccc2n2c(=O)n(CC(=O)NCc3ccccc3)nc12 | -1.88 | 2.13 | 3.5 | -2.15 | -1.91 |
| CCCCCC(=O)N1CC[C@@H](CC(=O)N(C)CC#N)[C@@H](CC)C1 | -5.4 | -9.22 | -12.6 | -18.2 | 3.99 |
| COCCCNC(=O)C1(C)Cn2nc(-c3ccccc3)cc2C(=O)N1Cc1cccc(OC)c1 (stereo not given) | 0.204 | -0.356 | 3.38 | -3.54 | -4.17 |
| O=[N+]([O-])c1ccc(CSc2ncnc3c2ncn3[C@@H]2O[C@H](CO)[C@@H](O)[C@H]2O)cc1 | -5.85 | 0.076 | -4.27 | -11.2 | -9.25 |
| CCCCOc1ccccc1-c1cc2n(n1)CC(C)(C(=O)NC1CCCCC1)N(CCOC)C2=O (stereo not given) | 0.63 | 0 | 4.69 | 0.21 | -0.343 |
| O=C(c1ccc(=O)[nH]n1)N1CCCC(c2ccn[nH]2)C1 (stereo not given) | -1.79 | -2.32 | -2.04 | -4.3 | -2.95 |
| CC(=O)c1c(C)c2cnc(Nc3ccc(N4CCNCC4)cn3)nc2n(C2CCCC2)c1=O | 3.81 | 5.95 | 5.25 | -6.75 | 2.6 |
| COc1cc(-c2ccc(O)cc2)c(OC)c(O)c1C1=CC(=O)OC1CC(=O)O (stereo not given) | -3.97 | -1.66 | 9.58 | -14.1 | -7.62 |
| C1CCc2nnnn2CC1 | -5.81 | 4.5 | -1.23 | -7.54 | 4.99 |
| COc1ccc(C(=O)Nc2ccc3c(c2)CN(CCc2ccccc2)C(=O)C(C)O3)cc1OC (stereo not given) | -19.7 | 0.845 | -8.35 | -7.44 | -23.3 |
